# According to PubChem BioAssay (NCI):
# Where a structure was tested more than once in an assay, its records may differ in their call.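 Single-concentration screen, 48 h exposure, 96-well plates. Endpoint: percent growth. Below 10 = active.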 The source holds more than one record for some entries. The other results are left out here. An entry can have further records. This drug was run again and again over the years, at its own concentration, as given; each value is one run. Signs of the kind (2×) count equal records among those shown.
# System: TK-10 renal
# Experiment: NCI-60 one-dose screen, 48 h (100 = growth as untreated, 0 = no growth, -100 = all killed)
smiles,measurement,setting,value
COc1cccc2c1C(=O)c1c(O)c3c(c(O)c1C2=O)C[C@@](O)(C(=O)CO)C[C@@H]3OC1CC(N)C(O)C(C)O1 (stereo not given in full),growth,"0.25 µM, runs of 2018","inactive: 55.1 (2×), 57.1, 50.3 (2×), 46, 52.2, 52.1, 48.6, 43, 50.5, 52, 45.7, 55.9, 55.6, 48.5, 58.1, 41.8, 74.7, 64.4, 66.1, 61.1, 61.3, 61.7 (3×), 61.9, 72.4, 67.8, 71.5, 60.6, 52.8, 76.4, 62.2, 59.3, 51.5, 59.7, 62.9 (2×), 60.2, 51.8, 58.4, 66.6, 64.2, 66.5 (2×), 66.8, 66.3, 70.6, 65.6, 76.3, 78.3, 72.2, 70.9, 47.6, 43.6, 63.7, 52.9, 48.3%"
same,growth,"0.25 µM, runs of 2019","inactive: 67.6, 57.7, 57.2, 58, 66.8, 66.9, 67.3, 68.4, 69.5, 64.2, 54.9, 46.6, 55.1, 61.7, 58.7, 65.6, 56.9 (2×), 64.9, 60.3, 63, 59.1 (2×), 59.7, 56.8, 66.6, 80.9, 71.4, 75.2, 54.7, 54.6, 57, 53.9, 50.3, 54.8 (2×), 47.6, 47.4, 55.5, 58.3, 46.2, 43.1, 44.7, 33.8, 65.8, 56, 61.6, 49.3, 57.9, 61%"
same,growth,"0.25 µM, runs of 2020","inactive: 57.3, 56.5, 69.7, 71.7, 70.3, 66.5, 59.7, 55.9, 63.3, 57, 59.9, 60.7, 56.1, 53.5, 64.2, 61.1, 73.3, 66, 70.2, 67.3, 65.1, 65.6, 67.7, 68.6, 66.2, 64.5%"
same,growth,"0.25 µM, runs of 2021","inactive: 63.1 (2×), 67, 64.8, 76, 77.3, 68.9, 70.3, 66.4, 66.2, 67.8, 75.3, 66, 56.8, 57.1, 59.1 (2×), 65.6 (2×), 65.5, 66.6, 66.9, 60.9, 56.7, 57.8, 57.6, 52.6, 59.7, 60.4, 62, 64.7, 58.8, 56.2, 56.9, 55.8, 48.8, 56.4, 59, 62.4, 70.5, 58.2, 57, 50.1, 57.5, 67.7, 55.2, 61.1, 72.1, 62.7, 60.6, 68.4, 64.9, 73.6%"
same,growth,"0.25 µM, runs of 2022","active: 8.48%, 5.49% and inactive: 19.1, 74.5, 77, 70.6, 44.2, 70, 72.1, 88, 65.9, 79.3, 79.8, 72.7, 74.1, 67.2, 63.1, 59, 75.2, 89.4, 69.3, 84.2, 87.4, 68.1, 74.2, 69.1, 66.8, 61.1%"
same,growth,"25 µM, runs of 1991","inactive: 15.5, 16.6, 14.8, 15.4, 13.6, 36.8, 10.9, 20.6, 25.5% and active: -1.08, -17.4, -15.3, -13.2, 6.97, -26, -3.36%"
same,growth,"25 µM, runs of 1992","inactive: 25.2, 11.9, 12.8, 14.6, 22.4, 13.1, 15.8, 18, 10.1, 22.7, 15.6, 10.7, 29.2, 22.3, 19.3, 13, 16.6, 11.4, 12.1, 12.4, 11.2, 19.7, 15.3, 17.4, 18.5, 23.3, 15.9, 28.1, 12.2, 19.9% and active: 6.76, -6.8, 5.36, -5.89, 1.78, -12.5, -11.7 (2×), -2.48, -14.5, -8.73, -5.68, 7.91, -17.7, -9.33, -2.94, -15.9, -28.6, -10.4 (2×), -14.1, -10.9, -10.5, 4.78, 2.66, 2.43, -4.96, 1.51, -11.9, -2.71, 2.75, -8.94, -1.1, 5.62, -5.32, 4.38, 4.55, 5.13, 2.95, 0.235, -12.3, -9.74, 8.49, -12, -32.5, -2.93, 5.81, -4.49, 1.65, -8.51, -14.7, -0.556, 8.74, 1.33, -16.3, 0.924, -1.47, -6.31, -0.867, -10.8, -8.36, -4.28, 9.39, 7.39, 0.396, 5.08, -16.6, -7.59, -18.4, -0.703, -13.5, 5.79, -13, 8.26, -11, -12.6, -2.62, -18, 4.48, -26.3, -72, 0.598, 2.48, 3.39, -12.8, -3.08, -4.88, -13.6, 6.74, 5.47%"
same,growth,"25 µM, runs of 1993","active: -2.75, -12.9, -19.2, -2.57, -8.21, 7.09, 4.07, 2.6, -19.7, 6.51, -35.6, -0.836, 7.57, 7.85, -0.369, -17.3, -2, -9.28, 7.88, -11.1, 6.02, -13.8, -0.489, -21.7, -6.23, 7.25, -40.5, 3.57, -37, -6.12, 6.12, -9.54, -10.5, 7.84, 10, -13.9, -19.3, 0.551, -16.9, -6.49, -31.6, -9.23% and inactive: 10.3, 13.3, 22.9, 10.2, 14.8, 13.1%"
same,growth,"25 µM, runs of 1994","inactive: 28.6, 98.4, 10.3, 12, 29.3, 47.4, 22.4% and active: -31.2, -37.8, -8.1, -7.7, -37.1, -35.4, 7.5, -27.6, -26.8, 2.17, -21.3, 5.2, -5.98, -34.1, -4.63, -18.2, -18.9, -12.1, -0.188, -1.18, -11.7, 3.62, 6.04, 0.65, -12.6, 1.23%"
same,growth,"25 µM, runs of 1995","active: -3.17, 6.97, 9.34, -14.1, 4.11, -5.82, -7.23, 4.34, -22.4 (2×), -1.57, 5.07, -18.7, -21.6, -14.9, 0.954, -31.8, -6.55, -18.9, -13 (2×), -4.84, -9.22, -2.64, 4.87, -34.9, -15.2, -19.9, 4.3, -4.86, -3.11, 0.119, -2.92, -5.54, -2.16, 1.7 (2×), -24.6, -5.6, -1.98, -8.64, -79.9% and inactive: 13.6, 22.2, 14.6, 37.9, 13.8, 11.9%"
same,growth,"25 µM, runs of 1996","active: -6.44, -7.23, -22.6 (2×), 5.68, 3.75, 3.89, -40.4, -16.3, -34.4, -8.98, -21.3, -4.83, -14.6, -0.582, -2.22, -36.6, -49.7, -17.9, -50, -32.1, -10.2, 6.44, -43.5 (2×), 9.39, -2.97, -29.4, -38.6, -13.5 (2×), 6, -3.25, 6.7, -19.2, 7.66, -2.36, -32.5, 2.78, -28.1, -25, -20.4, 9.83, 1.27, 9.6, 7.88, -0.304, -5.46, 8.54, -48.5, -37.5, 0.576, 1.63, 7.85, 1.28, -2.35, -21.2, 7.58, -0.936, -5.19, -9.48, -18.4, 0.325, -7.54, -49.3, -24.6, -17.5, -9.69, -0.568, -10.3, -7.39, -3.51, -85.9, -23.1, -3.18, -7.71, -4.69, -27.8, -5.03, -11.6, 5.76, -0.235, -12.3, -13.6, -32.2, 6.54, -12.1, -2.96, -34.7, -7.28, -25.8, -24.8, -18.3% and inactive: 14, 100, 15.5, 11.8, 13.9, 27.2, 115, 10.4, 21.2, 11.1, 37.2, 10.1, 23, 21.4, 14.8, 19.9%"
same,growth,"25 µM, runs of 1997","active: 9.23, -29.2, 1.74, -10.5, -12.5, 1.8, 4.65, -18.4, -19.3, 1.16, -4.14, -7.63, 5.27, -18.8, 5.86, -29.3, -25.9, -9.35, 1.79, -18.3, -5.52, -20.6, -18.6, 3.13, -17.2, 4.73, -16.4, -38.3, 4.1, -13.5, -23.6, -2.26, -3.94, 1.05, -8.24, 0.719, -7.12, -27.7, -39.1, -60.5, 1.96, -7.18, 9.04, -21.5, 6.71, 3.72% and inactive: 18, 10.9, 10.4, 13.4, 13, 13.7, 12.6, 66.7, 14.4, 99.8, 86.4%"
same,growth,"25 µM, runs of 1998","active: 6.84, -6.49, 3.28 (2×), 2.08, 2.14, -29.6, -27, -25 (2×), -4.35, -4.32, 6.57, -27.9, 1.03, -14.2, -2.26, 3.18, -21.9, -11.9, 7.17, 7.02, 0, -3.43, -15.9, 6.64, -1.61, -28.6, 0.772, -18.7, 5.99, -35.9, -13, -7.45, -36.7, -5.03, -4.27, -2.4, -16.3, 7.1, -8.88, -8.41, -2.18, -2.27, 7.22% and inactive: 12.5, 18.6, 11.6, 15.5, 10.2, 14, 14.7, 14.1, 59.8, 15.2, 16.7, 12, 34, 28.5, 29.4, 36.9, 30.2, 29, 24, 11.3, 28.4, 23.3, 21.1, 12.3, 19.2, 15, 13%"
same,growth,"25 µM, runs of 1999","inactive: 13.2, 25.5, 18.7, 10.5, 40.2, 11.8% and active: -7.26, -2.36, 9.15, -8.11, 3.69, 1.59, -45.5, 2.51, -46, -12.2, -5.26, -12.5, 0.884, 2.55, -34.1, -37.5, -15.6, -68.3%"
same,growth,"25 µM, runs of 2000","active: -75.6, -100, 2.11, -47.8%"
